Measurements from article PMC9911399, “Two distinct binding modes provide the RNA-binding protein RbFox with extraordinary sequence specificity”.
Changes are numbered by the printed parent chain; changes in the protein carry UniProt numbers. Some of the results follow.

T1: RBFOX1 RRM (Homo sapiens, UniProt Q9NWB1 109-208)
T1 sequence: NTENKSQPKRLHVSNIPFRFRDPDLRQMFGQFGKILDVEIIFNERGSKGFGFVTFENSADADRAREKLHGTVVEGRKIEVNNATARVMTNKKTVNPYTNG

B1: CUACAAA (DNA:RNA)
RNA: GGGAGACCGGAAUUCAGAUUGUCCCUACAAAUUAAAUCCCGUCGUAGCCACCA
DNA 1: CAATCTGAATTCCGGTCTCCC
DNA 2: TGGTGGCTACGACGGGATT
B2: ACAGAGC (DNA:RNA)
RNA: B1 RNA with C25A, U26C, C28G, A30G, A31C
DNA 1: CAATCTGAATTCCGGTCTCCC
DNA 2: TGGTGGCTACGACGGGATT
B3: AGCCCGA (DNA:RNA)
RNA: B1 RNA with C25A, U26G, A27C, A29C, A30G
DNA 1: CAATCTGAATTCCGGTCTCCC
DNA 2: TGGTGGCTACGACGGGATT
B4: GGCGCAA (DNA:RNA)
RNA: B1 RNA with C25G, U26G, A27C, C28G, A29C
DNA 1: CAATCTGAATTCCGGTCTCCC
DNA 2: TGGTGGCTACGACGGGATT
B5: AGACCGU (DNA:RNA)
RNA: B1 RNA with C25A, U26G, A29C, A30G, A31U
DNA 1: CAATCTGAATTCCGGTCTCCC
DNA 2: TGGTGGCTACGACGGGATT
B6: CCUGGGC (DNA:RNA)
RNA: B1 RNA with U26C, A27U, C28G, A29G, A30G, A31C
DNA 1: CAATCTGAATTCCGGTCTCCC
DNA 2: TGGTGGCTACGACGGGATT
B7: AGACCAG (DNA:RNA)
RNA: B1 RNA with C25A, U26G, A29C, A31G
DNA 1: CAATCTGAATTCCGGTCTCCC
DNA 2: TGGTGGCTACGACGGGATT
B8: ACGUAAC (DNA:RNA)
RNA: B1 RNA with C25A, U26C, A27G, C28U, A31C
DNA 1: CAATCTGAATTCCGGTCTCCC
DNA 2: TGGTGGCTACGACGGGATT
B9: AGUUGUG (DNA:RNA)
RNA: GGGAGACCGGAAUUCAGAUUGUCCAGUUGUGUUAAAUCCCGUCGUAGCCACCA
DNA 1: CAATCTGAATTCCGGTCTCCC
DNA 2: TGGTGGCTACGACGGGATT
B10: CACUGCU (DNA:RNA)
RNA: B9 RNA with A25C, G26A, U27C, U30C, G31U
DNA 1: CAATCTGAATTCCGGTCTCCC
DNA 2: TGGTGGCTACGACGGGATT
B11: UGUGGAU (DNA:RNA)
RNA: B9 RNA with A25U, U28G, U30A, G31U
DNA 1: CAATCTGAATTCCGGTCTCCC
DNA 2: TGGTGGCTACGACGGGATT
B12: ACUCCUU (DNA:RNA)
RNA: B9 RNA with G26C, U28C, G29C, G31U
DNA 1: CAATCTGAATTCCGGTCTCCC
DNA 2: TGGTGGCTACGACGGGATT
B13: UUUACGU (DNA:RNA)
RNA: B9 RNA with A25U, G26U, U28A, G29C, U30G, G31U
DNA 1: CAATCTGAATTCCGGTCTCCC
DNA 2: TGGTGGCTACGACGGGATT
B14: UGGAGCA (DNA:RNA)
RNA: B9 RNA with A25U, U27G, U28A, U30C, G31A
DNA 1: CAATCTGAATTCCGGTCTCCC
DNA 2: TGGTGGCTACGACGGGATT
B15: UGCUCAU (DNA:RNA)
RNA: B9 RNA with A25U, U27C, G29C, U30A, G31U
DNA 1: CAATCTGAATTCCGGTCTCCC
DNA 2: TGGTGGCTACGACGGGATT
B16: CUAGCGU (DNA:RNA)
RNA: B1 RNA with C28G, A29C, A30G, A31U
DNA 1: CAATCTGAATTCCGGTCTCCC
DNA 2: TGGTGGCTACGACGGGATT
B17: AGCGCCC (DNA:RNA)
RNA: B9 RNA with U27C, U28G, G29C, U30C, G31C
DNA 1: CAATCTGAATTCCGGTCTCCC
DNA 2: TGGTGGCTACGACGGGATT
B18: CCGCGAA (DNA:RNA)
RNA: B1 RNA with U26C, A27G, A29G
DNA 1: CAATCTGAATTCCGGTCTCCC
DNA 2: TGGTGGCTACGACGGGATT
B19: CUGGAUU (DNA:RNA)
RNA: B1 RNA with A27G, C28G, A30U, A31U
DNA 1: CAATCTGAATTCCGGTCTCCC
DNA 2: TGGTGGCTACGACGGGATT
B20: UGGUCGU (DNA:RNA)
RNA: B9 RNA with A25U, U27G, G29C, U30G, G31U
DNA 1: CAATCTGAATTCCGGTCTCCC
DNA 2: TGGTGGCTACGACGGGATT

Biological target: T1, RBFOX1 RRM
Assay: EMSA; HiTS-Eq, 1 nM pool, 10 min; buffer printed only for the single-RNA assays: 10 mM Tris pH 7.5, 150 mM NaCl, 3.4 mM EDTA, 0.001% NP-40, 30 C
Conditions: tags: His6 N-terminal (pET28a); label: 5' 32P
Method in brief: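 Purified RbFox RRM, wild type or mutant, was incubated for 10 min in 50 µL with 1 nM of a 5′-radiolabelled RNA pool carrying 7 randomized nucleotides, whose flanks were annealed to DNA oligonucleotides, over a series of increasing protein concentrations. Unbound RNA was resolved on 8% native PAGE, cut out, reverse-transcribed, barcoded by PCR and sequenced on an Illumina HiSeq 2500. Relative association constants were derived from changes in read counts for each RNA species versus the control reaction and normalised to the cognate motif.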

| Binder | binding signal |
| --- | --- |
| B1 | 0.00273 KA relative to UGCAUGU |
| B2 | 0.00408 KA relative to UGCAUGU |
| B3 | 0.00979 KA relative to UGCAUGU |
| B4 | 0.00871 KA relative to UGCAUGU |
| B5 | 0.0106 KA relative to UGCAUGU |
| B6 | 0.00806 KA relative to UGCAUGU |
| B7 | 0.00483 KA relative to UGCAUGU |
| B8 | 0.00521 KA relative to UGCAUGU |
| B9 | 0.0137 KA relative to UGCAUGU |
| B10 | 0.00744 KA relative to UGCAUGU |
| B11 | 0.0122 KA relative to UGCAUGU |
| B12 | 0.000366 KA relative to UGCAUGU |
| B13 | 0.0106 KA relative to UGCAUGU |
| B14 | 0.0243 KA relative to UGCAUGU |
| B15 | 0.0162 KA relative to UGCAUGU |
| B16 | 0.0098 KA relative to UGCAUGU |
| B17 | 0.00884 KA relative to UGCAUGU |
| B18 | 0.0107 KA relative to UGCAUGU |
| B19 | 0.018 KA relative to UGCAUGU |
| B20 | 0.0197 KA relative to UGCAUGU |
